No constants are given. Whether binding was seen depends on the method and setting. Some results given as binding are weak or reduced against the parent protein; the word gives no strength. For some assays here: Sequences can lack the tags named with a protein.
What was measured:
[1] = biological target: T1, recombinant mouse CD96-his (mouse, UniProt Q3U0X8 22-536); assay: SPR; Biacore T200; His-tagged receptors captured on an anti-histidine antibody CM5 chip (1-5 ug/mL, 30 uL/min); five concentrations (1:2 serial dilutions) of the PVR-Fc constructs flowed over, single-cycle kinetics; HBS-EP (20 mM HEPES pH 7.4, 150 mM NaCl, 0.005% Tween-20, 3.4 mM EDTA); 1:1 Langmuir model; both purified
T1 construct: mouse CD96 (TACTILE), recombinant; also called mCD96-his; mCD96; source: bought: Biolegend (788806)
T1 sequence (looked up): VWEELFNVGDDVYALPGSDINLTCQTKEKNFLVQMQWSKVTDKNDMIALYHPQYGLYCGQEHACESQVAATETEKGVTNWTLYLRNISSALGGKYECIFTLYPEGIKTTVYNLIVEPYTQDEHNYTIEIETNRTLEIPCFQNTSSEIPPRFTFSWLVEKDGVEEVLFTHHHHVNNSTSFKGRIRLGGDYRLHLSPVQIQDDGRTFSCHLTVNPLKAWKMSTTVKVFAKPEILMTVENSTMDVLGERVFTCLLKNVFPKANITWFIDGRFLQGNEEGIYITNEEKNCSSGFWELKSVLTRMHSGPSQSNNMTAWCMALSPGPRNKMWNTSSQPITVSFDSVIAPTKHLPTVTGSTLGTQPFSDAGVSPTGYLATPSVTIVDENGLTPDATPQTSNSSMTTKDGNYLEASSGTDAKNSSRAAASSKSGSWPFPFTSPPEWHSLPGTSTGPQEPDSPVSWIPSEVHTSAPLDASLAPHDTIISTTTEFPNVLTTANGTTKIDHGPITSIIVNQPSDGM

[2] = biological target: T2, recombinant mouse TIGIT-Fc-his (mouse, UniProt P86176 29-148); assay: as above
T2 construct: mouse TIGIT (T-cell immunoglobulin and ITIM domain), recombinant; also called mTIGIT-Fc-his; mTIGIT; source: bought: Biolegend (771808)
T2 sequence (looked up): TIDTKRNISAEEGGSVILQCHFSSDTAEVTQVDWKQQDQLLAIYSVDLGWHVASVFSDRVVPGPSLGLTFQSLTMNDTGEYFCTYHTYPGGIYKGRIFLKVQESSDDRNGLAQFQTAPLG

[3] = biological target: T3, recombinant mouse CD226-his (mouse, UniProt Q8K4F0 19-254); assay: as above
T3 construct: mouse CD226 (DNAM1), recombinant; also called mCD226-his; mCD226; source: bought: SinoBiological (50232-M08H)
T3 sequence (looked up): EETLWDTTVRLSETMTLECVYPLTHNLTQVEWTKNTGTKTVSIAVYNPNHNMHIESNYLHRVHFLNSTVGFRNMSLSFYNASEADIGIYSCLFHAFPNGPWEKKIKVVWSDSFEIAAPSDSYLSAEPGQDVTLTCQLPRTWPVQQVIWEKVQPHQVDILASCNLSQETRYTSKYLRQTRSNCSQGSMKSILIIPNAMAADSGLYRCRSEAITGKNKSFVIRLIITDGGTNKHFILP

[4] = biological target: TIGIT on the surface of stimulated murine T-cells (mouse (endogenous in primary splenocyte T-cells)) (UniProt P86176); assay: flow cytometry on cells; stimulated mouse splenocytes, Fc receptors blocked, 2.5 ug of construct for 1 h at 4 °C, detected with PE anti-human IgG Fc, gated on CD4+ and CD8+ T-cells; competition by a 2-molar excess of anti-TIGIT antibody (clone 1B4) added after washing, 30 min at 4 °C; only the binder purified

With “mutant vdPVR-Fc (Q62R and F128R) (from UniProt Q8K094 29-147) (Fc fusion)” the binding [1] was “no binding”, the binding [2] was “no binding” and the binding [3] was “no binding”. The binding [4] was “no binding (tested: 2.5 µg)”.

B1: vdPVR-Fc (IgV-domain PVR-Fc) (Fc fusion, mouse, UniProt Q8K094 29-147, looked up)
chain: DIRVLVPYNSTGVLGGSTTLHCSLTSNENVTITQITWMKKDSGGSHALVAVFHPKKGPNIKEPERVKFLAAQQDLRNASLAISNLSVEDEGIYECQIATFPRGSRSTNAWLKVQARPKN
notes: murine PVR (poliovirus receptor, CD155), IgV domain of the extracellular domain, residues 29-147 of NP_081790.1; An Ig-kappa leader at the 5' end drives secretion; Migrates as a dimer (~94 kDa) without reducing agent; also called minimal murine PVR-Fc fusion construct; source: Expi293F cells, secreted, purified (protein A); not shown: Fc (human IgG1; P01857 residues 100-330; joined by linker …)
B1 was tested, and the binding [4] was “binds”.

— publication PMC10030575, “The IgV domain of the poliovirus receptor alone is immunosuppressive and binds to its receptors with comparable affinity” (Scientific Reports, 2023)
